# This is one part of the list.
# How the values were obtained:
# Experiment in all cases: glycan array binding signal (z-score within array); higher = stronger binding
# Settings in all cases: glycan notation: IUPAC condensed, linker removed
# Kdn(a2-6)Gal(b1-4)GlcNAc = biological target: Kdn(a2-6)Gal(b1-4)GlcNAc
# Outline: (§1)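 Glycan array data came from 3228 arrays in the Consortium for Functional Glycomics database, and only arrays with an available protein sequence were kept. Glycan names were put into IUPAC-condensed notation, and columns mapping to the same glycan were averaged. The binding signal is a within-array Z-score, averaged across arrays of one protein sequence run at different concentrations or buffers and across linkers. A negative Z-score can be read as non-binding.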
# [1] = biological target: Man(a1-2)Man(a1-2)Man(a1-3)Man
# Outline: as §1
# [2] = biological target: Man(a1-2)Man(a1-2)Man(a1-6)[Man(a1-3)]Man
# Outline: as §1
# Man(a1-2)Man(a1-3)Man = biological target: Man(a1-2)Man(a1-3)Man
# Outline: as §1
# [3] = biological target: Man(a1-2)Man(a1-3)[Man(a1-2)Man(a1-6)]Man
# Outline: as §1
# [4] = biological target: Man(a1-2)Man(a1-3)[Man(a1-2)Man(a1-6)]Man(a1-6)[Man(a1-2)Man(a1-2)Man(a1-3)]Man
# Outline: as §1
# [5] = biological target: Man(a1-2)Man(a1-3)[Man(a1-2)Man(a1-6)]Man(a1-6)[Man(a1-2)Man(a1-2)Man(a1-3)]Man(b1-4)GlcNAc(b1-4)GlcNAc
# Outline: as §1
# [6] = biological target: Man(a1-2)Man(a1-3)[Man(a1-6)]Man(a1-6)[Man(a1-2)Man(a1-3)]Man(b1-4)GlcNAc(b1-4)GlcNAc
# Outline: as §1
# [7] = biological target: Man(a1-2)Man(a1-6)[Man(a1-3)]Man(a1-6)[Man(a1-2)Man(a1-2)Man(a1-3)]Man
# Outline: as §1
# [8] = biological target: Man(a1-2)Man(a1-6)[Man(a1-3)]Man(a1-6)[Man(a1-2)Man(a1-2)Man(a1-3)]Man(b1-4)GlcNAc(b1-4)GlcNAc
# Outline: as §1
# Man(a1-3)[Man(a1-6)]Man = biological target: Man(a1-3)[Man(a1-6)]Man
# Outline: as §1
# [9] = biological target: Man(a1-3)[Man(a1-6)]Man(a1-6)[Man(a1-2)Man(a1-3)]Man(b1-4)GlcNAc(b1-4)GlcNAc
# Outline: as §1
# [10] = biological target: Man(a1-3)[Man(a1-6)]Man(a1-6)[Man(a1-3)]Man
# Outline: as §1
# [11] = biological target: Man(a1-3)[Man(a1-6)]Man(a1-6)[Man(a1-3)]Man(b1-4)GlcNAc(b1-4)GlcNAc
# Outline: as §1
# [12] = biological target: Man(a1-3)[Man(a1-6)]Man(b1-4)GlcNAc(b1-4)GlcNAc
# Outline: as §1
# [13] = biological target: Man(a1-3)[Man(a1-6)]Man(b1-4)GlcNAc(b1-4)[Fuc(a1-6)]GlcNAc
# Outline: as §1
# Man(a1-6)Man = biological target: Man(a1-6)Man
# Outline: as §1
# Man(b1-4)GlcNAc = biological target: Man(b1-4)GlcNAc
# Outline: as §1
# MurNAc(b1-4)GlcNAc = biological target: MurNAc(b1-4)GlcNAc
# Outline: as §1
# Neu5Ac(a2-3)Gal = biological target: Neu5Ac(a2-3)Gal
# Outline: as §1
# [14] = biological target: Neu5Ac(a2-3)Gal(b1-3)GalNAc
# Outline: as §1
# [15] = biological target: Neu5Ac(a2-3)Gal(b1-3)GalNAc(b1-3)Gal(a1-4)Gal(b1-4)Glc
# Outline: as §1
# [16] = biological target: Neu5Ac(a2-3)Gal(b1-3)GalNAc(b1-4)[Neu5Ac(a2-3)]Gal(b1-4)Glc
# Outline: as §1
# [17] = biological target: Neu5Ac(a2-3)Gal(b1-3)GalNAc(b1-4)[Neu5Ac(a2-8)Neu5Ac(a2-3)]Gal(b1-4)Glc
# Outline: as §1
# [18] = biological target: Neu5Ac(a2-3)Gal(b1-3)GalNAc6S
# Outline: as §1
# [19] = biological target: Neu5Ac(a2-3)Gal(b1-3)GlcNAc
# Outline: as §1
# [20] = biological target: Neu5Ac(a2-3)Gal(b1-3)GlcNAc(b1-2)Man
# Outline: as §1
# [21] = biological target: Neu5Ac(a2-3)Gal(b1-3)GlcNAc(b1-2)Man(a1-3)[GlcNAc(b1-4)][Neu5Ac(a2-3)Gal(b1-3)GlcNAc(b1-2)Man(a1-6)]Man(b1-4)GlcNAc(b1-4)GlcNAc
# Outline: as §1
# [22] = biological target: Neu5Ac(a2-3)Gal(b1-3)GlcNAc(b1-2)Man(a1-3)[Neu5Ac(a2-3)Gal(b1-3)GlcNAc(b1-2)Man(a1-6)]Man(b1-4)GlcNAc(b1-4)GlcNAc
# Outline: as §1
# [23] = biological target: Neu5Ac(a2-3)Gal(b1-3)GlcNAc(b1-3)Gal(b1-3)GlcNAc
# Outline: as §1
# [24] = biological target: Neu5Ac(a2-3)Gal(b1-3)GlcNAc(b1-3)Gal(b1-4)GlcNAc
# Outline: as §1
# [25] = biological target: Neu5Ac(a2-3)Gal(b1-3)GlcNAc(b1-3)GalNAc
# Outline: as §1
# [26] = biological target: Neu5Ac(a2-3)Gal(b1-3)GlcNAc(b1-4)Gal(b1-4)Glc
# Outline: as §1
# [27] = biological target: Neu5Ac(a2-3)Gal(b1-3)GlcNAc(b1-6)GalNAc
# Outline: as §1
# [28] = biological target: Neu5Ac(a2-3)Gal(b1-3)GlcNAc6S
# Outline: as §1
# [29] = biological target: Neu5Ac(a2-3)Gal(b1-3)[Fuc(a1-4)]GlcNAc
# Outline: as §1
# [30] = biological target: Neu5Ac(a2-3)Gal(b1-3)[Fuc(a1-4)]GlcNAc(b1-3)Gal(b1-3)[Fuc(a1-4)]GlcNAc
# Outline: as §1
binder,measurement,setting,value
PpFlo1 (Pichia pastoris) (protein) MGSSHHHHHHSSGLVPRGSHMQESGDGDISDSAYACDIDATRYDGFNATIYEFQPGDGRLTRDPVFMSTGYLNRTQLHSITGVTDPGFSIYTPGVPTTTLYGIPNVNWENLLLELKGYFRAEVSGDYGLSLRNIDDSAILFFGKETAFQCCNENSISNEASTDYSLFTIFRQEGDETTNLDSFTYTQYLEAGKYYPVRTFFVNIERHAVFNFTMTLPDGTELTDFHNYIYQFGALDEEQCQA,glycan array binding signal (z-score),Kdn(a2-6)Gal(b1-4)GlcNAc,-0.505
same,glycan array binding signal (z-score),[1],-0.28
same,glycan array binding signal (z-score),[2],-0.385
same,glycan array binding signal (z-score),Man(a1-2)Man(a1-3)Man,-0.662
same,glycan array binding signal (z-score),[3],-0.425
same,glycan array binding signal (z-score),[4],-0.089
same,glycan array binding signal (z-score),[5],0.237
same,glycan array binding signal (z-score),[6],-0.06
same,glycan array binding signal (z-score),[7],-0.565
same,glycan array binding signal (z-score),[8],-0.128
same,glycan array binding signal (z-score),Man(a1-3)[Man(a1-6)]Man,-0.074
same,glycan array binding signal (z-score),[9],-0.017
same,glycan array binding signal (z-score),[10],-0.435
same,glycan array binding signal (z-score),[11],-0.052
same,glycan array binding signal (z-score),[12],-0.237
same,glycan array binding signal (z-score),[13],-0.358
same,glycan array binding signal (z-score),Man(a1-6)Man,-0.317
same,glycan array binding signal (z-score),Man(b1-4)GlcNAc,-0.39
same,glycan array binding signal (z-score),MurNAc(b1-4)GlcNAc,-0.467
same,glycan array binding signal (z-score),Neu5Ac(a2-3)Gal,-0.548
same,glycan array binding signal (z-score),[14],-0.261
same,glycan array binding signal (z-score),[15],-0.569
same,glycan array binding signal (z-score),[16],-0.041
same,glycan array binding signal (z-score),[17],-0.125
same,glycan array binding signal (z-score),[18],-0.417
same,glycan array binding signal (z-score),[19],0.371
same,glycan array binding signal (z-score),[20],-0.182
same,glycan array binding signal (z-score),[21],-0.247
same,glycan array binding signal (z-score),[22],-0.67
same,glycan array binding signal (z-score),[23],-0.308
same,glycan array binding signal (z-score),[24],-0.018
same,glycan array binding signal (z-score),[25],-0.532
same,glycan array binding signal (z-score),[26],0.686
same,glycan array binding signal (z-score),[27],-0.067
same,glycan array binding signal (z-score),[28],-0.158
same,glycan array binding signal (z-score),[29],0.881
same,glycan array binding signal (z-score),[30],-0.296
